Laboratory results taken from PubChem BioAssay AID1963576 (National Center for Advancing Translational Sciences (NCATS), 2024).
Out of some 46,000 compounds screened, about 60 (0.1%) were called active. The shares of active, inactive and inconclusive entries below differ from those in the screen. The call rests on the fitted dose curve; in most records, active means well fitted inhibition curve with a large enough effect; inconclusive means small, poorly fitted or top-dose-only effect; inactive means no such curve, though single readings can be large or run the other way. No potency is given beside an inconclusive call; the fits are too rough.

assay: Primary qHTS assay for Inhibitors of ovarian cancer metastasis using an organotypic tumor microenvironment (TME) model.; further: nearly all actives have a fitted effect of over 65% in size;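 on potency: count of GFP cancer cells still attached after washing and fixation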; details: SKOV3ip1-GFP adhesion/invasion on 3D omental model, fluorescence; activity change, negative = inhibition: at 45.8 µM (top of the series); series mostly up to 45.8 µM
Excerpt: PI: Ernst Lengyel MD., Ph.D. Department of Obstetrics and Gynecology, Section of Gynecologic Oncology University of Chicago Medicine, Chicago, Illinois. The tumor microenvironment (TME) is a key determinant of metastatic efficiency. We performed a quantitative high-throughput screen (qHTS) of diverse medicinal chemistry tractable scaffolds (44,420 compounds) and pharmacologically active small molecules (386 compounds) using a layered organotypic, robust assay representing the ovarian cancer metastatic TME. This 3D model contains primary human mesothelial cells, fibroblasts, and extracellular matrix, to which fluorescently labeled ovarian cancer cells are added. Initially, 100 compounds inhibiting ovarian cancer adhesion/invasion to the 3D model in a dose-dependent manner were identified. Of those, eight compounds were confirmed active in five high-grade serous ovarian cancer cell lines and were further validated in secondary in vitro and in vivo biological assays. […] Specifically, NCGC00117362 and PP-121 inhibited ovarian cancer adhesion, invasion, and proliferation, whereas milciclib inhibited ovarian cancer invasion and proliferation. […] To evaluate the clinical potential of NCGC00117362, structure - activity relationship studies were performed. […] The three compounds identified have promise as therapeutics for prevention and treatment of ovarian cancer metastasis.
PROTOCOL TABLE (as described by Inglese J, Shamu CE and Guy RK. 2007) SEQUENCE No. (e.g., 1, 2, 3, etc.); […] (e.g., Cells, Incubation, Reagent, etc.); VALUE; DESCRIPTION. 1; Cells; 4 uL; primary human omental fibroblast, black, clear bottom, low base, 1536-well Aurora assay plate. 2; Incubation; 48 hr; 37C. 3; Cells; 3 uL; 1,200 SKOV3ip1-GFP cells. 4; Compounds; 23nL; acoustic dispenser. 5; Incubation; 2 hr; room temperature. 6; Incubation; 16 hr; 37C. 7; Wash; 5 uL; 1x PBS. 8; Fixing; 5 uL; 4% paraformaldehyde (PFA). 9; Incubation; 15 min; room temperature 10; Wash, 5 uL; 1x PBS. 11; Detection; Fluorescence, excitation filter 488 nm, emission filter 509 nm. NOTES (numbers refer to Sequence numbers above) 1. For the 1,536-well format, 40 primary human omental fibroblasts and 400 mesothelial cells were seeded with 0.02 µg fibronectin and 0.02 µg collagen type I in 4 µL of growth media (2.3 mm2; Supplementary Fig. S1A). 2. Assay plates were incubated for 48 hours at 37 C. 3. After incubation, 1,200 SKOV3ip1-GFP were seeded in 3 µL of serum-free media (growth media minus FBS) on top of primary human omental cells. 4. Compounds or controls were added to each well immediately after the addition of the cancer cells. Compounds were screened in four doses (0.36-46 µmol/L), and the plates contained the positive control (Tomatine) in eight doses (0.035-75 µmol/L) and DMSO (equal volume controls) 5 - 6. The plates were incubated at room temperature for 2 hours and then at 37 degrees C for 16 hours. 7 - 10. Following incubation, the media were aspirated and each well washed with PBS (5 µL) and then fixed with 4% paraformaldehyde (PFA; 5 µL). After 15 minutes, the PFA solution was aspirated, PBS (5 µL) was added. 11. The number of GFP-labeled cells analyzed using a fluorescent cytometer TTP LabTech Acumen eX3 using 488 nm excitation filter and 509 nm emission filter. Data was normalized to the DMSO treated for negative and Tomatine treated wells for positive control. REFERENCES: Inglese J, Shamu CE and Guy RK, Reporting data from high throughput screening of small molecule libraries, Nature Chemical Biology, 2007, 3(8): 438-441. doi.org/10.1038/nchembio0807-438. Yasgar A, Shinn P, Jadhav A, Auld DS, Michael S, Zheng W, Austin CP, Inglese J and Simeonov A, Compound Management for Quantitative High-Throughput Screening. J. Assoc. Lab. Auto., 2008, 13: 79-89. doi: 10.1016/j.jala.2007.12.004.
Potency means the concentration at half of the fitted maximal effect; tags describe the fitted curve by direction and shape.

SMILES | Potency | activity change, negative = inhibition
O=C(COc1ccc(F)cc1)Nc1cccc(OCc2cc(=O)n3ccccc3n2)c1 | inconclusive [inhibitor, single point] | –
COc1cccc(C(=O)NC(c2ccc(Cl)cc2)c2cc(Cl)c3cccnc3c2O)c1 (stereo not drawn) | inconclusive [inhibitor, full curve] | –
Cc1ccc(Cl)cc1NC(=O)Cn1c(=O)oc2cc(S(=O)(=O)N3CCCCCC3)ccc21 | inconclusive [inhibitor, single point] | –
C[C@@H](NCc1cc2ccccc2[nH]1)c1cccc2ccccc12 | inactive | –
CC(C)S(=O)(=O)c1oc(-c2ccc(F)cc2)nc1S(=O)(=O)c1ccc(F)cc1 | inconclusive [inhibitor, full curve, poor fit] | –
CCC(C)NC(=O)C1CCN(C(=O)c2cc3sccc3n2Cc2ccc(Cl)cc2)CC1 (stereo not drawn) | inactive | –
CC(C)(C)c1ccc(OCCSc2nc(-c3cccs3)nc3cc(=O)[nH]n23)cc1 | inactive | –
COc1cc(C(=O)NCCSc2c(-c3ccccc3)[nH]c3ccccc23)cc(OC)c1OC | inconclusive [inhibitor, single point] | –
COc1cc(Cl)c(C)cc1NC(=O)NC1COc2ccccc2C1 (stereo not drawn) | inconclusive [inhibitor, single point] | –
Cc1ccc(NC(=O)Nc2ccc3nc(N4CCN(C)CC4)cc(C)c3c2)cc1C | inconclusive [inhibitor, single point] | –
CC(C)(O)CCc1ccc(OCc2cc(-c3cccc(OC(F)F)c3)c3ncccc3c2)cc1 | inactive | –
Cc1cnc(-c2cnc(NCCNc3ccc(C#N)cn3)nc2-c2ccc(Cl)cc2Cl)[nH]1 | inactive | –
CCOC(=O)c1cc(-c2ccc(F)cc2)n(CC(=O)NCc2ccc(OC)cc2)c1C | inconclusive [inhibitor, single point] | –
O=C(NCc1ccc2c(c1)CCN2C(=O)c1ccncc1)c1ccccc1Br | inconclusive [inhibitor, single point] | –
Cc1c(Cl)ccc2sc(NC(=O)c3ccc(S(=O)(=O)N4CCCC4)cc3)nc12 | inactive | –
CC(C)Oc1ccc(CNC(=O)C2CCN(C(=O)N3CCOc4ccc(Cl)cc43)CC2)cc1 | inconclusive [inhibitor, single point] | –
CCC1CCCCN1CCCNC(=O)c1cc2c(Cl)nc3ccc(C)cc3c2s1 (stereo not drawn) | inconclusive [inhibitor, full curve] | –
O=C(c1cnc(N2CCOCC2)c2ccccc12)N1CCN(c2ccc(F)cc2)CC1 | inactive | –
CCn1nc(-c2ccccc2)c(-c2ccccc2)c(C(=O)Nc2ccccc2C(N)=O)c1=O | inactive | –
CCCN1C(=O)c2[nH]nc(-c3ccccc3O)c2C1c1cccc(OCc2ccccc2)c1 (stereo not drawn) | inconclusive [inhibitor, single point] | –
Cc1cc(-n2c(C)nc3ccccc3c2=O)ccc1NC(=O)c1ccc(C)c([N+](=O)[O-])c1 | – | inconclusive: -31.5% [inhibitor]

SMILES | Potency | activity change, negative = inhibition
Cc1ccc(CN2CCC(CNC(=O)c3cc4ccc5cccnc5c4[nH]3)CC2)cc1 | inconclusive [inhibitor, single point] | –
COc1ccccc1CNC(=O)COc1cc(=O)n(C)c2ccccc12 | inconclusive [inhibitor, single point] | –
CCc1sc(Nc2ccc(Cl)cc2)nc1-c1cc2cccc(OC)c2oc1=O | inconclusive [inhibitor, single point] | –
CCN(CC)CCNC(=O)c1ccc2nc(-c3ccccc3)c(-c3ccc(CN4CCC(n5c(=O)[nH]c6ccccc65)CC4)cc3)nc2c1 | inconclusive [inhibitor, single point] | –
CC(=O)c1cccc(NC(=O)CSc2nnc3ccc(-c4ccc(C)cc4)nn23)c1 | inactive | –
Cc1ccc(-c2nnc(NC(=O)c3ccc4c(c3)OCCO4)o2)c(C)c1 | inactive | –
O=C(CC1C(=O)N(c2ccc(F)cc2)C(=O)N1Cc1ccc2c(c1)OCO2)Nc1ccc(F)cc1 (stereo not drawn) | inactive | –
CC[C@H](NC(=O)[C@H](C)NC)C(=O)N1C[C@@H](O)C[C@H]1Cc1c(-c2[nH]c3cc(F)ccc3c2C[C@H]2C[C@H](O)CN2C(=O)[C@H](CC)NC(=O)[C@H](C)NC)[nH]c2cc(F)ccc12 | inconclusive [inhibitor, single point] | –
CCCN(CCC)C(=O)Cn1c(=O)n(-c2ccc(C)cc2)c(=O)c2ccc(C(=O)NCc3ccccc3Cl)cc21 | inconclusive [inhibitor, single point] | –
CCc1sc(Nc2ccc(C)cc2Br)nc1-c1cc2cccc(OC)c2oc1=O | inconclusive [inhibitor, partial curve, poor fit] | –
Cc1ccc(-n2nc(CO)c(C(=O)NCC(c3ccccc3)c3ccccc3)n2)cc1 | inconclusive [inhibitor, single point] | –
CCCN1CCN(CCCNC(=O)c2cc3c(s2)-c2c(C)cccc2OC3)CC1 | inconclusive [inhibitor, single point] | –
COc1cc(C=CC(=O)CC(=O)C=Cc2ccc(O)c(OC)c2)ccc1O | inconclusive [inhibitor, single point] | –
CN1CCN(Cc2ccc(NC(=O)Nc3ccc(Oc4cc(NC(=O)C5CC5)ncn4)cc3)cc2C(F)(F)F)CC1 | inconclusive [inhibitor, partial curve, poor fit] | –
COc1cccc(-c2noc(-c3cc4ccccc4oc3=O)n2)c1OC | inactive | –
CN1CCC(CNc2ccc3ncc(-c4cccc(OC(F)(F)F)c4)n3n2)CC1 | inactive | –
CNC(=O)C1CCC(Cn2c(=O)c3sccc3n(CC(=O)Nc3ccccc3)c2=O)CC1 (stereo not drawn) | inconclusive [inhibitor, single point] | –
CCOc1ccc(NS(=O)(=O)c2ccc3[nH]cc(C(=O)NCc4ccccc4)c(=O)c3c2)cc1 | inactive | –
COc1ccc(NC(=O)c2sc3nc4c(cc3c2N)CCCCCC4)cc1OC | inconclusive [inhibitor, single point] | –
Cc1nc(-c2ccc(C)c(S(=O)(=O)N3CCC(C(=O)Nc4ccc(Cl)cc4)CC3)c2)no1 | inconclusive [inhibitor, single point] | –
Cc1cc(C)n(-c2nnc(Nc3cc(Cl)ccc3C)c3ccccc23)n1 | inconclusive [inhibitor, partial curve, poor fit] | –

SMILES | Potency | activity change, negative = inhibition
CC[C@@H]1C(=O)N(C)c2cnc(Nc3ccc(C(=O)NC4CCC(N5CCN(CC6CC6)CC5)CC4)cc3OC)nc2N1C(C)C (stereo partly drawn) | inconclusive [inhibitor, single point] | –
COc1ccc(Cl)cc1NC(=O)N1CC(=O)Nc2sc3c(c2C1c1ccccc1)CCCC3 (stereo not drawn) | inconclusive [inhibitor, single point] | –
CCN(CC)C(=O)CSc1nc2ccccc2c(=O)n1Cc1ccco1 | inactive | –
O=C(NCCCNc1nc(Nc2cccc(NC(=O)N3CCCC3)c2)ncc1I)c1cccs1 | inactive | –
COc1cc(NC(=O)CSc2nc3ccccc3nc2Cc2ccccc2OC)cc(OC)c1 | inconclusive [inhibitor, single point] | –
Cc1ccc(CCNC(=O)c2cc3c(=O)oc4ccccc4c3s2)cc1 | inactive | –
COCCNC(=O)CCc1c(C)nc2c(c(C)nn2-c2ccc(C)cc2)c1C | inconclusive [inhibitor, single point] | –
CCOC(=O)c1sc2ccccc2c1S(=O)(=O)N1CCN(c2cccc(OC)c2)CC1 | inconclusive [inhibitor, single point] | –
Cc1ccc2nc(-c3c[nH]c4ccccc34)c(Nc3ccccc3C)n2c1 | inactive | –
COc1cccc(NC(=O)Cn2c(=O)n(CC(=O)NCc3ccc(C)cc3)c(=O)c3sccc32)c1 | inconclusive [inhibitor, single point] | –
COC(=O)c1ccc2c(c1)N(CC(=O)Nc1cccc(Cl)c1C)C(=O)c1ccccc1S2 | inconclusive [inhibitor, partial curve, poor fit] | –
COc1ccc2c(c1)-c1nc(NC(=O)c3cccc(Br)c3)sc1CC2 | inconclusive [inhibitor, single point] | –
O=C(NCc1ccncc1)C12C[C@H]3C[C@@H](C1)CC(c1ccc(Cl)cc1)(C3)C2 | inactive | –
CCCN(C(=O)CCc1nc(-c2ccc(C)cc2)no1)c1ccc(OCC)cc1 | inconclusive [inhibitor, single point] | –
CCCSc1ncc(Cl)c(C(=O)N(Cc2ccccc2)c2ccc(OC)cc2)n1 | inconclusive [inhibitor, single point] | –
Cc1ccc2nc(-c3cccc(NC(=O)CSc4ccc(Cl)cc4)c3)oc2c1 | inactive | –
Cc1ccc(NC(=O)Cn2c(=O)n(-c3ccccc3)c(=O)c3ccc(C(=O)NCc4ccc5c(c4)OCO5)cc32)cc1 | inconclusive [inhibitor, single point] | –
CCN(CC)CCNC(=O)c1ccc(-c2nc(CN3CCc4ccccc43)c(C)o2)cc1 | inactive | –
CCOC(=O)c1cccc(NC(=O)CSc2cc(=O)n(C)c3ccccc23)c1 | inactive | –
Cc1ccc(Sc2ccc(N3CCCC(C(=O)Nc4ccc(F)cc4)C3)nn2)cc1 (stereo not drawn) | inconclusive [inhibitor, single point] | –
CC(=O)N1CCCc2cc(S(=O)(=O)N3CCC(C(=O)Nc4c(C)cccc4C)CC3)ccc21 | inactive | –
